In the experiment the test system is Plasmodium falciparum. Briefly: Primary screen in NF54 nanoGlo assay, in single point, at 2uM, 72h; a lower Z score goes with more inhibition. The following applies: timepoint 72 hour. It is filed as functional, Erythrocyte.

Structures are written as SMILES. Several values for one entry are separate records, joined by “and”; a condition that tells them apart may be missing. Equal entries are not always repeated. The whole screen tested about 150,000 compounds, of which about 540 (0.36%) showed an effect of 50% or more. The list shows a part of the results.

What is called % Inhibition is the relative decrease from the control value, in per cent. Regarding `CCNC(=O)N1CCC(NC2CCN(c3cc(C)cc(C)c3)CC2)CC1`, the “% Inhibition” value came to 5% and the Z score is reported as -0.74. Regarding `CC(C)c1ccc(C(=O)N2CCc3[nH]cnc3[C@H]2c2cccnc2)c(O)n1`, the “% Inhibition” value is -14% and the Z score is 1.28. On the same counts, the results for `Cc1ccn2c(CN3CCN(C(=O)CNS(=O)(=O)c4ccc(Cl)s4)CC3)c(C)nc2c1` are 10% and -1.22. Taken in the same sequence, the figures for `COCCn1nnc([C@@H]2CN(C(=O)Cc3csc(C)n3)CCO2)n1` were -2% and 0.34.

Regarding `COc1c(F)cc(C(=O)NC(Cc2ccncc2)[C@H]2C[C@@H](O)C2)cc1F` (stereo not given in full), the “% Inhibition” value is reported as -1% and the Z score is listed as 0.25.

Turning to `CC(C)c1cnc(N[C@H]2CCN(C(C)(C)C)C2)nc1`, the “% Inhibition” value is reported as -17% and the Z score is given as 2.11. Taken in the same sequence, the figures for `C=CCNC(=O)N1CCN(c2nc3cc(Cl)ccc3c3nnc(-c4ccc(C)cc4)n23)CC1` were -14% and 1.41. On the same counts, the results for `CN(c1cnc2ccccc2n1)C1CN(c2ccc3nncn3n2)C1` are -11% and 2.3. With `NC(=O)N1CCC[C@H]1C(=O)Nc1ccc2c(c1)CCC2`, the “% Inhibition” value is reported as 1% and the Z score is -0.1. With `CN(C)c1ccc(NC(=O)c2cnn[nH]2)cc1`, the “% Inhibition” value is recorded as -13% and the Z score is given as 2.53.

For the compound `CC(C)(C)OC(=O)N1C[C@@H](C(=O)O)C[C@@H](C(C)(C)C)C1`, the “% Inhibition” value is -6% and the Z score is on record as 0.64.

As to `COc1ccc(OC)c(CNC(=O)C2CCN(C(=O)N3C[C@@H]4C[C@H](C3)[C@H]3CCCC(=O)N3C4)CC2)c1`, the “% Inhibition” value was -5% and the Z score is 1.08.

With `O=C(Nc1nncs1)c1cccc(C(=O)Nc2nncs2)n1`, the “% Inhibition” value came to 77% and the Z score was -14.68.

Take `COCCN1CCN(Cc2cn(-c3ccccc3)nc2-c2ccc3c(c2)OCO3)CC1`: the “% Inhibition” value was -1% and the Z score is given as 0.19. On the same counts, the results for `CCc1cccc2c(=O)cc(C(C)C)n(CC(=O)NC3CC3)c12` are -11% and 1.03.

Turning to `CS(=O)(=O)N1CCN(Cc2ccccn2)CC1`, the “% Inhibition” value is given as -8% and the Z score is on record as 0.96. On the same counts, the results for `O=C(c1[nH]cnc1-c1ccccc1)N1CCc2nocc2C1` are -13% and 1.82. On the same counts, the results for `Cc1cc2c(cc1NC(=O)NCc1cncn1CC(C)C)OCCO2` are -17% and 2.41.

Take `O=C(CN1CN(c2ccccc2)C2(CCN(C(=O)c3cccc(F)c3)CC2)C1=O)NCc1ccccc1`: the “% Inhibition” value is on record as -13% and the Z score stood at 1.27. Take `CN(C)C(=O)CNC(=O)c1ccc2c(c1)n(CC1CC1)c(=O)n2C1CCCCC1`: the “% Inhibition” value is on record as -6% and the Z score is 1.03. On the same counts, the results for `COC(=O)c1ccc(Oc2nc(N3CCCC3)c(Cl)c3c2N(C2CCCCC2)CCS3(=O)=O)cc1` are -1% and 0.15. On the same counts, the results for `CNCCNC(=O)c1c(C)c(C)cc(C)c1C` are 6% and -1.06.

Consider `CC(C)N(CCN1CCCCCC1)C(=O)[C@H]1CCCN(C(=O)C(C)(C)C)C1`, for which the “% Inhibition” value is -8% and the Z score came out at 0.92. On the same counts, the results for `CCS(=O)(=O)N1CCC[C@H](C(=O)NC2CCCCCCC2)C1` are -14% and 2.57. Take `O=C(C[C@@H]1NC(=O)N(c2ccccc2)C1=O)N1CCc2ccccc2C1`: for the setting “2 µM”, the “% Inhibition” value was -2% and -9%. As for `Cc1nc(NCc2ccco2)sc1C(=O)Nc1ccccc1`, the “% Inhibition” value was -16% and the Z score came out at 2.95. As for `O=C(C1=Cc2ccccc2OC=C1)N1CCOC[C@@H](CO)C1`, the “% Inhibition” value is given as -5% and the Z score worked out at 0.77. On the same counts, the results for `CNC(=O)c1cc(O[C@H]2CCCN(Cc3nnc(C)s3)C2)ccn1` are -4% and 0.41. Taken in the same sequence, the figures for `Cc1ccc2c(c1)nc(-n1nc(C)cc1C)c1nnnn12` were 37% and -4.16.

Turning to `O=C(c1ccc2[nH]ncc2c1)N1CCOC[C@@H]1CC1CCC1`, the “% Inhibition” value is recorded as -18% and the Z score came out at 2.19. As to `Cn1ccnc1[C@H]1CCN(S(=O)(=O)c2cc(Cl)sc2Cl)C1`, the “% Inhibition” value is recorded as -6% and the Z score was determined as 0.54. On the same counts, the results for `O=C(Cc1ccc(N(Cc2ccc(F)cc2)C(=O)c2cccc(F)c2)cc1)NCc1ccccc1` are -2% and 0.3.

Regarding `Cc1ncc(CNC(=O)c2cccc(CO)c2)c(O)n1`, the “% Inhibition” value was determined as 3% and the Z score was -0.3. Taken in the same sequence, the figures for `N#CCCCCn1c(-c2cncs2)nc2ccccc21` were -35% and 4.07. Taken in the same sequence, the figures for `c1cnn(-c2ccc(CN3CCOC[C@@]34CCOC4)cc2)c1` were 10% and -1.28. Consider `COCCC1(C)CN(Cc2cc(OC)ccc2OC(F)F)C1`, for which the “% Inhibition” value is -1% and the Z score stood at 0.11. On the same counts, the results for `COc1ccc(/C=C\c2onc(C)c2NC(C)=O)cc1S(=O)(=O)Nc1ccc(Cl)cc1` are 0% and 0.02. On the same counts, the results for `O=S1(=O)CCCN1Cc1sccc1Cl` are -10% and 1.22.

Consider `c1ccc2c(c1)ccn2Cc1nnc2n1CCCC[C@H]2C1CCOCC1`, for which the “% Inhibition” value turned out to be 5% and the Z score is -0.95.

Turning to `CCOC(=O)c1c(C)c(CCC(=O)N2CCC(C)CC2)n(C)c1C`, the “% Inhibition” value was determined as 0% and the Z score is listed as 0.01.

Turning to `Cc1nn(C)c(C(=O)N2CCC[C@H](c3ncon3)C2)c1Cl`, the “% Inhibition” value is given as -6% and the Z score is 1.04. On the same counts, the results for `CCc1ccc(Cn2nc(CCOC)nc2Cn2cnnc2)cc1` are -13% and 1.44. Taken in the same sequence, the figures for `Cc1nc(-c2cc(S(=O)(=O)N3CCC[C@H](C(=O)N4CCOCC4)C3)c(C)s2)no1` were 0% and 0.04. On the same counts, the results for `CCCn1cnnc1CN(C)C(=O)c1ccnc(OC)c1` are 2% and -0.33. As to `CCN1CCN(c2ccc(F)cc2[C@H](C)NS(=O)(=O)c2cc(C(=O)OC)ccc2C)CC1`, the “% Inhibition” value is recorded as 3% and the Z score was -0.46. Taken in the same sequence, the figures for `CCCCCNC(=O)CCC(=O)Nc1c(C)cc(C)cc1C` were 7% and -0.83. Taken in the same sequence, the figures for `CC[C@H]1CN(C(=O)c2ccc(F)cc2)CC[C@H]1CC(=O)Nc1ccccc1` were -2% and 0.27.

Take `O=C(CN1C(=O)c2ccccc2C1=O)Nc1ccnn1Cc1cccc(Cl)c1`: the “% Inhibition” value stood at 2% and the Z score is -0.32. Taken in the same sequence, the figures for `O=C(Cn1cncn1)N1CCc2cc(Br)c(F)cc2C1` were -2% and 0.41. Taken in the same sequence, the figures for `Cc1noc(C)c1CC(=O)N[C@H](c1cccnc1)C1CCOCC1` were -13% and 2.5. Taken in the same sequence, the figures for `Cc1cccnc1Cn1ccnc1C1CCN(C(C)C)CC1` were 3% and -0.25. As for `CC(C)(C)OC(=O)N1CCC(CC(=O)N2CC[C@H](O)C2)CC1`, the “% Inhibition” value is -4% and the Z score is recorded as 0.81. Taken in the same sequence, the figures for `CC1=C[C@@H](CNCCN(C)C)[C@H](C(C)C)C[C@H]1Cc1nnc(-c2ccccc2)o1` were -5% and 0.61. On the same counts, the results for `C=CC[C@]1(C(=O)O)CCCN(c2ccncc2)C1` are -2% and 0.41. Taken in the same sequence, the figures for `O=C(O)c1ccc(COc2ccc(CN3CC[C@H]3c3ccccc3)cc2)o1` were -12% and 2.34. For `CN(C(=O)C[C@]1(c2ccc(-c3ccccc3)cc2)CC(=O)N(C2CC2)C1=O)C1CCOCC1`, the “% Inhibition” value was 19% and the Z score is given as -2.56. Taken in the same sequence, the figures for `CN1CCC(N(C)C(=O)CC[C@H]2CCCN(Cc3ccc4c(c3)OCCO4)C2)CC1` were -1% and 0.11. In the case of `CN(C)S(=O)(=O)N[C@H]1CCN(C(=O)c2coc3ccccc23)C[C@@H]1O`, the “% Inhibition” value is given as -3% and the Z score is 0.65.

For `CC(C)Cc1nc(CN2CCC[C@H]2c2cnn(C)c2)no1`, the “% Inhibition” value is -6% and the Z score is on record as 0.79.

For the compound `Cn1cccc1CNc1nnc(C(C)(C)C)o1`, the “% Inhibition” value was -12% and the Z score was 1.38. `CCOC(=O)N1CCC(N2Cc3cccc(C(=O)Nc4cccc(F)c4)c3C2=O)CC1`: the “% Inhibition” value was found to be 2% and the Z score was -0.29.

On to `CC1(Cc2nc(N)nc(NCCc3ccccc3)n2)Oc2ccccc2O1`, for which the “% Inhibition” value turned out to be 0% and the Z score is given as -0.01. Taken in the same sequence, the figures for `COCC(=O)N1CCN(Cc2nc3ccccc3n(C)c2=O)CC1` were -5% and 0.6. On to `CCN(CC)C(=O)C[C@@H]1CCN2C[C@@H]1/C=C\COc1ccccc1CN(Cc1ccccn1)CC2=O`, for which the “% Inhibition” value is reported as -4% and the Z score is on record as 0.46. `CCc1cc(N2CCn3nc([C@H](O)c4nccn4C)cc3C2)nc(N(C)C)n1`: the “% Inhibition” value was 3% and the Z score is -0.46. On the same counts, the results for `Cc1nn(C)c(N)c1C(=O)NC(C)(C)Cc1ccc(Cl)cc1Cl` are -2% and 0.34. Taken in the same sequence, the figures for `CCC(CC)[C@H]1CCN(CCC2OCCO2)C1` were 8% and -1.52. On the same counts, the results for `Cc1cccc(N2CCN(C(=O)C[C@H]3CCCCN(C)C3=O)CC2)c1C` are -13% and 2.49.

Turning to `O=C(CN1CCN(c2ccc(F)cc2)C1=O)NCCCN1CCCC1=O`, the “% Inhibition” value is 2% and the Z score is listed as -0.28. With `CCc1nnsc1C(=O)OCc1ccc(C(N)=O)cc1`, the “% Inhibition” value is listed as -15% and the Z score came to 1.96. On the same counts, the results for `Cc1[nH]nc(CCC(=O)N2C[C@@H]3CC[C@H]2CN(Cc2ccncc2)C3)c1C` are -12% and 2.05. On the same counts, the results for `CC(N)C1CCCN(C(=O)CCc2ccsc2)C1` (stereo not given) are -10% and 1.38. Consider `Cn1cc(C(NS(=O)(=O)c2ccc(F)c(Cl)c2)[C@H]2C[C@@H](O)C2)cn1` (stereo not given in full), for which the “% Inhibition” value was found to be 10% and the Z score is -1.38.

As to `N#Cc1cccc(N[C@H]2CCN(C(=O)c3ccccn3)C[C@@H]2O)n1`, the “% Inhibition” value is -6% and the Z score is recorded as 1.24. On the same counts, the results for `CC(C)(CNC(=N)N)c1ccccc1Cl` are -2% and 0.16. Taken in the same sequence, the figures for `CCCN(CCn1cc(Cl)cn1)Cc1ccccn1` were 4% and -0.52. Taken in the same sequence, the figures for `CN(Cc1nccn1C)c1ccc(C(F)(F)F)cn1` were 2% and -0.14.

With `O=S(=O)(c1ccccc1)N(C1CC1)C1CCN(CCc2cn[nH]c2)CC1`, the “% Inhibition” value is -5% and the Z score was 0.75. For `CC(C)c1cncc(NC(=O)C2CCC(C(=O)N(C)C)CC2)c1` (stereo not given), the “% Inhibition” value is on record as -6% and the Z score is 1.08.

`CC(C)N1CC(=O)N(Cc2n[nH]c(C(C)(C)C)n2)C1=O`: the “% Inhibition” value is -27% and the Z score turned out to be 3.15. Take `O=C(C[C@H]1CCOC1)N1CCN(Cc2ccccc2)C(=O)C1`: the “% Inhibition” value is reported as -1% and the Z score came to 0.23.

For the compound `COc1cc(C)ccc1CN1C[C@@H]2CC[C@H]1CN(Cc1c(C)noc1C)C2`, the “% Inhibition” value was determined as 2% and the Z score is recorded as -0.3. As to `CN1CCC(NC(C(N)=O)c2ccc(Br)cc2F)C1=O` (stereo not given), the “% Inhibition” value is listed as 7% and the Z score is -0.72.

(Values after ChEMBL document CHEMBL4888484, “Replenishing the malaria drug discovery pipeline: Screening and hit evaluation of the MMV Hit Generation Library 1 (HGL1) against asexual blood stage Plasmodium falciparum ,using a nano luciferase reporter read-out” (2022).)
